The text below walks through data of ChEMBL document CHEMBL4888484, “Replenishing the malaria drug discovery pipeline: Screening and hit evaluation of the MMV Hit Generation Library 1 (HGL1) against asexual blood stage Plasmodium falciparum ,using a nano luciferase reporter read-out” (2022).

The campaign covered roughly 150,000 compounds. About 540 (0.36%) showed an effect of 50% or more. Some of the results follow.

This test concerns Plasmodium falciparum. In words: Primary screen in NF54 nanoGlo assay, in single point, at 2uM, 72h; a lower Z score goes with more inhibition. As to conditions: timepoint 72 hour. Format: functional, Erythrocyte.
One may read the % Inhibition as the drop in the measured response relative to a control, in per cent. Take `Cc1cccc(CN2C[C@]34C=C[C@H](O3)C(C(=O)N3CCS(=O)(=O)CC3)C4C2=O)c1` (some centres undefined): the “% Inhibition” value turned out to be 1% and the Z score is reported as -0.19.
In the same order, the values of `COc1ccc(-c2ccc(C(=O)N[C@H]3COC[C@@H]3O)c(=O)[nH]2)cc1` are -21% and 4.
The like results for `c1cc(NCc2cnc3cnccn23)cc(-c2nc(C3CC3)n[nH]2)c1` were, in that order, -19% and 2.65.
Regarding `OC(CCc1ccccc1)CNC(Cn1cncn1)C1CC1` (centres undefined), the “% Inhibition” value was -29% and the Z score amounted to 3.41.
As for `CCOC(=O)Nc1cccc(N[C@@H](C)C(=O)NC(=O)NC)c1C`, the “% Inhibition” value is 3% and the Z score is reported as -0.29.
In the same order, the values of `CCN(CC)S(=O)(=O)c1ccc(N2CCN(C)CC2)c(N)c1` are -18% and 1.49.
For `Cc1nc(-c2nnn(-c3ccc(F)cc3)c2C)sc1C(=O)NCc1cccs1`, the “% Inhibition” value is -3% and the Z score stood at 0.5.
As to `Cc1oncc1C(=O)N(C)C[C@H]1Cc2ccccc2CO1`, the “% Inhibition” value is recorded as -3% and the Z score came to 0.32.
Turning to `Cn1cncc1C1CCN(S(=O)(=O)c2c(F)cccc2F)CC1`, the “% Inhibition” value came out at 2% and the Z score is on record as -0.38.
In the same order, the values of `O=C(C1CCC1)N(Cc1cccc(Cl)c1)C[C@H]1CC(c2ccccc2F)=NO1` are -13% and 1.33.
Regarding `CC(CN1CC(C(N)=O)O[C@H](C)C1)c1cccc(Cl)c1` (some centres undefined), the “% Inhibition” value was -3% and the Z score is given as 0.53.
With `Cc1[nH]nc(CCC(=O)N2CCC[C@H](Cn3ccnc3C)C2)c1C`, the “% Inhibition” value is listed as -11% and the Z score came to 1.77.
In the same order, the values of `Cc1nc(N2C[C@H](O)[C@@H](N3CCCC3)C2)c2cnn(C)c2n1` are -11% and 1.78.
In the same order, the values of `CCc1ncnc(N2CCOC[C@@H]2CNC(=O)c2cc(C(N)=O)co2)c1F` are 25% and -3.13.
Turning to `O=C(Oc1cc(-c2ccccc2)no1)c1ccc(Cl)cc1`, the “% Inhibition” value was -3% and the Z score is 0.41.
In the same order, the values of `CC[C@H]1CCCN(C(=O)c2cc(C(C)C)on2)CC1` are 2% and -0.23.
The like results for `C[C@H](NC(N)=O)C(=O)NCc1cccnc1OCc1ccccc1` were, in that order, -7% and 0.93.
Consider `O=C(Cc1csc(Cc2cccc(Cl)c2)n1)Nc1ccc2c(c1)OCCCO2`, for which the “% Inhibition” value is listed as -2% and the Z score was determined as 0.25.
In the case of `CCOC(=O)C(=O)Nc1nc(=S)ss1`, the “% Inhibition” value stood at 3% and the Z score was -0.39.
For the molecule `COC1CCN(C[C@H]2CCCCCN2C(=O)c2ccc(F)cc2)CC1`, the “% Inhibition” value was determined as 1% and the Z score is on record as -0.14.
As to `COc1cccc2c(Nc3ccc(C(=O)O)cc3)cc(C)nc12`, the “% Inhibition” value is -3% and the Z score was determined as 0.28.
In the same order, the values of `COc1cccc(C2=NO[C@H](C(=O)N3CCc4ccccc4C3)C2)c1` are 10% and -1.58.
The like results for `CN(C)c1ccc(C(=O)NC2CC2)cc1N` were, in that order, 1% and -0.08.
On to `CC(C)[C@H]1CN(C(=O)Cc2ccsc2)C[C@@H]1C(=O)O`, for which the “% Inhibition” value is -1% and the Z score is reported as 0.21.
Turning to `C[C@H](NC(=O)CN1CN(c2ccccc2)C2(CCN(C(=O)CC(C)(C)C)CC2)C1=O)c1ccccc1`, the “% Inhibition” value is reported as -1% and the Z score stood at 0.09.
In the same order, the values of `Cc1cccnc1C(=O)NCCN1CC[C@H](N2CCOCC2)C1=O` are -6% and 0.79.
In the same order, the values of `CC(C)c1nnc(N2C[C@@H]3CN(C(=O)C4CCCC4)C[C@]3(C(=O)O)C2)s1` are -6% and 1.18.
Turning to `Cn1nc(-c2ccccc2)c2[nH]c(-c3ccc(-n4ccnc4)cc3)nc21`, the “% Inhibition” value is reported as -5% and the Z score worked out at 0.45.
In the same order, the values of `CC(C)(C)c1cc(C[C@@H]2CC[C@H](O)[C@@H](CN)O2)no1` are 0% and -0.02.
On to `COc1ccc([C@H](C)NC(=O)c2cccc(N(C)S(C)(=O)=O)c2C)cc1`, for which the “% Inhibition” value is reported as -1% and the Z score stood at 0.2.
Turning to `O=C(NC1CC1)N(CC1(O)CCCC1)CC1(O)CCCC1`, the “% Inhibition” value was -3% and the Z score stood at 0.48.
Turning to `CN(Cc1nnc[nH]1)C(=O)Nc1ncc(C2CCCCC2)s1`, the “% Inhibition” value was -2% and the Z score is reported as 0.27.
The like results for `O=C(Cn1c2c(c(=O)n(C3CCCCC3)c1=O)CCC2)Nc1ccc2c(c1)OCCO2` were, in that order, -11% and 1.88.
Turning to `CCO[C@H]1CN(C(=O)COc2cccnc2)C[C@@H]1O`, the “% Inhibition” value is on record as 2% and the Z score is on record as -0.18.
In the same order, the values of `O=C(Cc1c(F)cccc1Cl)N1CC[C@H](n2nccn2)C1` are -8% and 1.54.
For the molecule `O=C(Cn1c(=O)n(CCCC(=O)NC2CCCC2)c(=O)c2cc(Cl)ccc21)Nc1ccc(Cl)cc1Cl`, the “% Inhibition” value was -12% and the Z score is 1.81.
The like results for `CCOCCO[C@@H](C)C(=O)Nc1cc(C)ccc1NS(C)(=O)=O` were, in that order, -14% and 1.95.
In the case of `O=C(Nc1ccc(F)cc1)c1nc(-c2cn(-c3cccc(Cl)c3)nn2)no1`, the “% Inhibition” value was found to be 10% and the Z score is -1.89.
In the case of `COc1ccc(S(=O)(=O)Nc2cccn3nc(C4CCC4)nc23)cc1`, the “% Inhibition” value came to 0% and the Z score is given as -0.02.
Turning to `C=CCN1CCN(C(=O)c2csc(NC(=O)c3cc(F)cc(F)c3)n2)CC1`, the “% Inhibition” value was -5% and the Z score turned out to be 0.93.
In the same order, the values of `Cc1nn(C)c(OCC(F)(F)F)c1CNC[C@](C)(O)c1cccc(Cl)c1` are -8% and 1.42.
Turning to `CCC1(C)CCN(Cc2nnc(C)s2)CC1`, the “% Inhibition” value is reported as -19% and the Z score came out at 2.06.
